# Laboratory results from PubChem BioAssay AID1671193 (National Center for Advancing Translational Sciences (NCATS), 2021).
# In all, about 150,000 compounds went through this assay and about 180 (0.12%) were called active. Inconclusive results, whose numbers are uncertain, are shown with a selection of clear calls. The call rests on the fitted dose curve; in most records, active means well fitted cell-killing curve with a large enough effect; inconclusive means small, poorly fitted or top-dose-only effect, or effect the other way; inactive means flat fitted curve, though single readings scatter. Where the call is inconclusive, the potency comes from a doubtful curve fit.
# Test: GF-AFC viability counterscreen for inhibitors of alpha-synuclein gene (SNCA) expression; further: nearly all actives have a fitted effect of over 30% in size;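 on activity change, negative = cytotoxicity: 0% = DMSO-treated cells and -100% = medium-only wells without cells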
# Details: HEK-293-SNCA-luc viability, GF-AFC fluorescence, 24 h; activity change, negative = cytotoxicity: at 57.1 µM (top of the series) unless noted
# In short: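 Cytotoxicity counterscreen: after 24 h compound treatment of genome-edited SNCA-luciferase HEK-293 cells, live-cell protease substrate GF-AFC read by fluorescence after 30 min; activity scaled between DMSO (0%) and medium-only (-100%), curves Hill-fitted.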
# Potency means the concentration at half of the fitted maximal effect; tags describe the fitted curve by direction and shape.
Compound,"activity change, negative = cytotoxicity",Potency
CC1(C(=O)NC2CCOCC2)CCc2cnc(Nc3ccccc3)nc21 (stereo not drawn),inactive: -18.6% [at 87.6 µM],
O=C(NCCC1=CCCCC1)c1ccc(N2CC3CC(C2)[C@H]2CCCC(=O)N2C3)nc1 (stereo partly drawn),,"inconclusive: 1.78 µM [cytotoxic, partial curve, poor fit]"
Cc1[nH]cnc1CN1CCCC(c2nnc(CN3CCC(O)CC3)n2C)C1 (stereo not drawn),,"inconclusive: 1.58 µM [rising, full curve, poor fit]"
Cc1cc(C)cc(NC(=O)CSCn2nnc3c(=O)[nH]c(Cc4ccc(F)cc4)nc32)c1,,"inconclusive: 28.2 µM [cytotoxic, partial curve]"
COc1cc(NC(=O)CN2C(=O)NC3(CCC(C)CC3)C2=O)cc(OC)c1 (stereo not drawn),inactive: -1.81%,
COc1ccccc1CCNC(=O)CCn1c(=O)c2cccn2c2ccc(F)cc21,,"inconclusive: 8.91 µM [rising, full curve, poor fit]"
Cc1noc(C)c1-c1cc2c(c(-c3ccccc3O)c1)C(=O)N(C)C2=O,,"inconclusive: 35.5 µM [cytotoxic, partial curve, poor fit]"
CCN(CC)C(=O)CC[C@@H]1CNC(=O)[C@@H]2C[C@H](NCc3ccc(F)cc3)CN12,inactive: -2.61% [at 87.6 µM],
CCc1cc(C(=O)Nc2cnn(Cc3ccc(F)cc3)c2)no1,,"inconclusive: 0.447 µM [cytotoxic, single point]"
CCOc1ccccc1CN1C[C@@H](CO)[C@H](c2ccccn2)C1,inactive: -3.26%,
Cc1cccc(N(C)C(=O)C(Cc2ccccc2)NS(=O)(=O)c2cccc3nsnc23)c1 (stereo not drawn),,"inconclusive: 35.5 µM [cytotoxic, single point]"
C[S+](=O)([O-])N1CCC(C(=O)N2CCCC(c3nc4ccncc4[nH]3)C2)CC1 (stereo not drawn),inactive: 2.31%,
CC(C)CC(=O)NC1CCN(c2cn[nH]c(=O)c2)CC1,,"inconclusive: 25.1 µM [cytotoxic, partial curve, poor fit]"
O=C1c2cccnc2OC2(CCCC2)CN1Cc1ccc2c(c1)OCO2,,"inconclusive: 3.98 µM [rising, single point]"
CCn1c(=O)n(-c2cccc(Cl)c2)c(=O)c2sc3ccccc3c21,,"inconclusive: 11.2 µM [cytotoxic, partial curve, poor fit]"
C=CCNC(=O)c1cccnc1N1CC2CC(C1)[C@H]1CCCC(=O)N1C2 (stereo partly drawn),inactive: -2.3%,
O=C(CCc1nc2ccccc2s1)N1CCC(Cc2noc(-c3ccc(F)cc3)n2)C1 (stereo not drawn),,"inconclusive: 15.8 µM [cytotoxic, partial curve, poor fit]"
F[C@@H]1CN(Cc2ccc(C(F)(F)F)cc2)C[C@@H]1OCc1nc2ccccc2[nH]1,,"inconclusive: 35.5 µM [cytotoxic, partial curve, poor fit]"
